From PubChem BioAssay AID504937 (National Center for Advancing Translational Sciences (NCATS), 2011)
“And” between values parts separate entries of the source, which are not always exact repeats. Identical values can stand only once. Out of some 340,000 compounds screened, about 20 (0.006%) were called active. The shares of active, inactive and inconclusive entries below differ from those in the screen. Calls come from the whole dose curve; as a rule, active = well fitted inhibition curve with a large enough effect; inconclusive = small, poorly fitted or top-dose-only effect; inactive = no such curve, though single readings can be large or run the other way. Potencies of inconclusive entries are doubtful fits and often do not repeat.

These compounds were tested against Sphingomyelin phosphodiesterase (Homo sapiens) (UniProt P17405) (assay: Inhibitors of Secretory Acid Sphingomyelinase (S-ASM): qHTS). Details: placental ASM, HMU-PC fluorogenic substrate (series up to 57.5 µM), 60 min; activity change, negative = inhibition: at the top concentration.
Text: Atherosclerosis is the underlying process for cardiovascular disease and thus is a major contributor to disease burden in the population. […] Thus, selective small molecule inhibitors of S-ASM should block LDL modification and reduce aortic LDL retention and may serve as new agents for the treatment of atherosclerosis. In a collaboration between National Heart, Lung, and Blood Institute and the NCGC a high-throughput amenable screen was developed to identify potent and selective small molecule inhibitors of S-ASM. This enzymatic, fluorescent screen uses an ASM enzyme preparation derived from human placenta and was tested against the NIH Molecular Libraries Small Molecule Repository (MLSMR). NIH Chemical Genomics Center [NCGC] NIH Molecular Libraries Probe Centers Network [MLPCN] MLPCN Grant: MH093173-01 Assay Submitter (PI): Alan Remaley, National Heart, Lung, and Blood Institute and Wei Zhen, NIH Chemical Genomics Center
Two microliters of ASM enzyme (1:150 dilution from stock) are dispensed in 1536-well plate. 23 nL of compound and control are pinned into assay plate using the Kalypsys pintool. The plates are then incubated for 10 minutes at ambient room temperature. Then, 2 uL of the flurogenic substrate, HMU-PC0, (9 uM final) are added to the plate. An incubation for 60 minutes takes place at 37 masculineC. After that, 4 uL of stop solution is added to raise the pH to 10 to end the kinetic reaction. Plate is read on ViewLux, with detection set at Ex = 386 (10) nm and Em = 447 (10) nm.
Potency is the fitted concentration of half-maximal effect; tags give direction and shape of the fitted curve.

UniProt P17405, sequence (P17405 whole entry, looked up): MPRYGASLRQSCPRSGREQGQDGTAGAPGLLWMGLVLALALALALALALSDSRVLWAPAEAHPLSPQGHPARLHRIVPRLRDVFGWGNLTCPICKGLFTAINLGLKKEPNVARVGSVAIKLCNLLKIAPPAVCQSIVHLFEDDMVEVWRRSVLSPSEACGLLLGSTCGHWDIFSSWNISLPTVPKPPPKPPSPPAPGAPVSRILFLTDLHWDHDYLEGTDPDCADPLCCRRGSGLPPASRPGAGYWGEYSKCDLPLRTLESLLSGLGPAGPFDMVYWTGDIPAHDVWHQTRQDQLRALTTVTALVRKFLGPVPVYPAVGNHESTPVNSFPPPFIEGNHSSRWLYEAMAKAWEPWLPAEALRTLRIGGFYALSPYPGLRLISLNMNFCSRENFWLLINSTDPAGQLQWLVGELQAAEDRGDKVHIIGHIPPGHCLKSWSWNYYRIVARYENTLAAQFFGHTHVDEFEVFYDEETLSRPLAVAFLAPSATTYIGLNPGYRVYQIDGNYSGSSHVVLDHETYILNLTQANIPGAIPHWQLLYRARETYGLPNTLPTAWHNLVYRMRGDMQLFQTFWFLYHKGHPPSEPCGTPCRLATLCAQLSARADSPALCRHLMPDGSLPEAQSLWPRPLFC

Structure (SMILES) | Potency | activity change, negative = inhibition
CCCCCc1nc2c(c(=O)c3ccccc3n2C)c(=O)n1C1CCCCCC1 | inconclusive: 79.4 µM [inhibitor, partial curve, poor fit] | 
O=C(N/N=C/c1c(O)n(C2CC2)c(=S)[nH]c1=O)c1ccccc1Cl | inconclusive: 1 µM [inhibitor, full curve, poor fit] | 
O=C1NC(=S)N(c2ccc(F)cc2)C(=O)/C1=C\c1ccoc1 | inconclusive: 158 µM [inhibitor, partial curve, poor fit] | 
O=c1[nH]c(=S)[nH]c(O)c1N=Nc1cccc(S(=O)(=O)N2CCOCC2)c1 | inconclusive: 1580 µM [inhibitor, partial curve, poor fit] | 
CCOC(=O)c1c(C)n(Cc2ccc3c(c2)OCO3)c2ccc(O)cc12 | inconclusive: 224 µM [inhibitor, partial curve, poor fit] | 
N#CC(C#N)=NNc1ccc(S(=O)(=O)N2CCCC2)cc1 | inconclusive: 282 µM [inhibitor, partial curve, poor fit] | 
Cc1ccc(C(=O)Nc2ccc(Cl)cc2C(=O)c2ccccc2)cc1 | inconclusive: 355 µM [inhibitor, partial curve, poor fit] | 
O=C(NN=Cc1ccc(N(CCCl)CCCl)cc1)C(=O)c1c[nH]c2ccccc12 | inconclusive: 251 µM [inhibitor, partial curve, poor fit] | 
CC1=CC(=Cc2sc3ccccc3[n+]2C)C=C(C)O1 | inconclusive: 112 µM [inhibitor, partial curve, poor fit] | 
CCC(=Nc1ccc2c(c1)CCC2)c1c(O)n(C2CCCCC2)c(=O)[nH]c1=O |  | inactive: -5.38%
COC(=O)C1=C(c2c(C)noc2C)C[C@@H]2CC[C@H]1N2C(=O)NCCNC(C)=O |  | inactive: 4.14%
C[C@H]1O[C@@H](O[C@H]2[C@@H](O)C[C@H](O[C@H]3[C@@H](O)C[C@H](O[C@H]4CC[C@@]5(C)[C@H](CC[C@@H]6[C@@H]5CC[C@]5(C)[C@@H](C7=CC(=O)OC7)CC[C@]65O)C4)O[C@@H]3C)O[C@@H]2C)C[C@H](O)[C@@H]1O |  | inactive: -7.23%
CCCCN1C(=O)NC(=O)C2(Cc3c(nc4c(C)cccn4c3=O)N3CCc4ccccc4C32)C1=O (stereo not drawn) | inconclusive: 100 µM [inhibitor, partial curve, poor fit] | 
CCCOC(=O)Nc1ccc([As](=O)(O)O)cc1NC(=O)OCCC | inconclusive: 89.1 µM [inhibitor, partial curve] | 
O=C1NC(=O)C2(Cc3ccccc3N3CCCC32)C(=O)N1Cc1ccccc1 (stereo not drawn) |  | inactive: 62.6%
C[C@H]1CN([C@@H](C)CO)C(=O)c2cc(NC(=O)Nc3cccc4ccccc34)ccc2O[C@@H]1CN(C)Cc1ccc(-c2ccccc2)cc1 | inconclusive: 70.8 µM [inhibitor, partial curve, poor fit] | 
CCCCCCCCCCCCCCCC[N+](C)(C)C | inconclusive: 89.1 µM [inhibitor, single point] | 
CN(C)c1ccc2c(c1)N=C(c1ccco1)OP2(=S)N1CCOCC1 (stereo not drawn) | inconclusive: 112 µM [inhibitor, partial curve, poor fit] | 
Cc1ccc(N2C(=O)NC(=O)/C(=C\c3cc(C)n(-c4sc5c(c4C#N)CCCC5)c3C)C2=O)cc1 | inconclusive: 316 µM [inhibitor, partial curve, poor fit] | 

Structure (SMILES) | Potency | activity change, negative = inhibition
CC12CCC3c4ccc(OP(=O)(N5CC5)N5CC5)cc4CCC3C1CCC2=O (stereo not drawn) | inconclusive: 251 µM [inhibitor, partial curve, poor fit] | 
O=C(c1cc(-c2ccc(Cl)cc2)n(-c2ccc(Cl)cc2Cl)n1)N1CCOCC1 | active: 28.2 µM | 
CN1C(=O)NC(=O)[C@]2(Cc3ccccc3N3CCN(c4ccccc4)CC32)C1=O (stereo partly drawn) |  | inactive: 6.55%
COc1cc(OC)cc(-c2sc3ccc(OC)cc3c2-c2ccc(OCCN3CCOCC3)cc2)c1 | inconclusive: 63.1 µM [inhibitor, partial curve, poor fit] | 
C[N+]12CCC(CC1)C(C(O)(c1ccccc1)c1cccs1)C2 (stereo not drawn) |  | inactive: 2.24%
Cc1ccc(NP(=O)(Oc2ccccc2F)Oc2ccccc2F)cc1 |  | inactive: -6.88%
O=C(c1cc(F)ccc1F)C1CCCN(Cc2cccc(Cl)c2)C1 (stereo not drawn) |  | inactive: -1.33%
O=P(Oc1ccc(-c2ccccc2)cc1)(N1CC1)N1CC1 | inconclusive: 20 µM [inhibitor, partial curve, poor fit] | 
O=[N+]([O-])c1ccc(N2CCCCCC2)c2nonc12 |  | inactive: -10.7%
CCc1nnc(NC(=O)CCc2nc(C3=CCN(C)CC3)no2)s1 |  | inactive: 5.2%
Cc1cccc(N=Nc2ccc(N(C)C)cc2)c1 | inconclusive: 1410 µM [inhibitor, partial curve, poor fit] | 
CN(C)P(=NC(=S)c1cccn1C)(N(C)C)N(C)C | inconclusive: 28.2 µM [inhibitor, partial curve, poor fit] | 
CC(=O)O[C@H]1CCC2C3CCC4=CC(=O)CCC4=C3C=C[C@@]21C (stereo partly drawn) |  | inactive: 45.2%
O=[N+]([O-])c1ccc(N2CCCNCC2)c2ncccc12 | inconclusive: 100 µM [inhibitor, partial curve, poor fit] | 
Clc1ccc(C(c2ccc(Cl)cc2)n2cc[n+](CC(OCc3ccc(Cl)cc3Cl)c3ccc(Cl)cc3Cl)c2)cc1 (stereo not drawn) | inconclusive: 56.2 µM [inhibitor, partial curve, poor fit] | 
CCCCCCCCCCCCCCCC[n+]1ccccc1 | inconclusive: 56.2 µM [inhibitor, single point] and inconclusive: 70.8 µM [inhibitor, single point] | 
Nc1ncnc2c1ncn2[C@@H]1O[C@H](COP(=O)(O)OP(=O)(O)OP(=O)(O)O)[C@@H](O)[C@H]1O | inconclusive: 44.7 µM [inhibitor, partial curve, poor fit] | 
COC(=O)C1=C(c2cccc3c2S(=O)(=O)c2ccccc2-3)C[C@@H]2CC[C@H]1N2C(=O)N1CCc2cc(OC)c(OC)cc2C1 | inconclusive: 891 µM [inhibitor, partial curve, poor fit] | 
CC(C)(C)c1nc(N2CCN(C(=O)c3ccco3)CC2)c2nnn(Cc3ccccc3Cl)c2n1 |  | inactive: -7.44%
